The target of one test is T1, neutrophil elastase (NE) (Homo sapiens, UniProt P08246).
T1 construct: purchased Elastin Products Company
T1 sequence (P08246 30-267): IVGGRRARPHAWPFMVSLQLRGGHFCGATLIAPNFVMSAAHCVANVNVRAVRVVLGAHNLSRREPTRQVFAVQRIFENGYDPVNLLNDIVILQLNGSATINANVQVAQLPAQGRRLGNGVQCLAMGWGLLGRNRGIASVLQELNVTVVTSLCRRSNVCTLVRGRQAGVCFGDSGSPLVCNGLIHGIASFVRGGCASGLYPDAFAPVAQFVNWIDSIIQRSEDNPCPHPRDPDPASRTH
Description: Recombinant protease labeling / fluorescent SDS-PAGE, neutrophil elastase. It counts as binding. Particulars: 500 ng recombinant protease; probe 0, 0.1, 0.5 or 1 μM; 37° C. for 30 minutes.

Another test addresses T2, human proteinase-3 (Homo sapiens, UniProt P24158).
T2 sequence (P24158 28-248): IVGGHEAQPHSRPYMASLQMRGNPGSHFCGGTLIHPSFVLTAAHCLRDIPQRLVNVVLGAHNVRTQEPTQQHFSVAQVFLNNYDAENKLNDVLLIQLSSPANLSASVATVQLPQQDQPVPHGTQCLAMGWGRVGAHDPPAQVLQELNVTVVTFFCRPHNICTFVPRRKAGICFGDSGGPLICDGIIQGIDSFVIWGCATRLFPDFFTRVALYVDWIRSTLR
On the procedure: (§1) The reactivity of PK105b against recombinant human serine proteases was tested, and its potency was compared to Cy5-V-DPP. After a brief incubation of increasing amounts of PK105b (0, 0.1, 0.5, or 1 μM) with equal amounts of serine proteases (neutrophil elastase (NE), proteinase-3 (PR-3), or trypsin), the mixtures were resolved by SDS-PAGE and binding of Cy5-V-DPP or PK105b to the serine proteases was detected by in-gel fluorescence.

The target of test [1] is porcine pancreatic trypsin type II-S (beta trypsin) (Sus scrofa, UniProt P00761). The following applies: 500 ng protease; probe 0, 0.1, 0.5 or 1 μM; 37° C. for 30 minutes. On the procedure: as §1
Test [2] has as its system serine protease activity in lysates prepared from mouse bone marrow. On the procedure:
(§2) Tubes were rocked overnight at 4° C.
The ability of PK105b to detect serine protease activity in tissue lysates was tested and compared to Cy5-V-DPP.

For test [3], the system named is secreted serine proteases found in the lumen of the colon. Description: Labeling of luminal fluids and fecal pellets from control or TNBS-treated mice. On the procedure: as §2
Colitis was induced in 10-week old male C57BL/6J mice by intracolonic infusion of picrylsulfonic acid solution (2,4,6-Trinitrobenzenesulfonic acid solution, TNBS; Sigma; 2.5 mg dissolved in 50% ethanol). Body weight and symptoms were recorded daily, and mice were humanely killed after three days. Upon colon extraction, luminal fluids were collected by flushing colons with PBS. Solids were removed by centrifugation and supernatant was concentrated using a 3-KDa cut-off centrifugal filter (Amgen). Pieces of proximal and distal colon were frozen for protease analysis or fixed in 4% paraformaldehyde overnight, paraffin embedded, sectioned, and stained with haematoxylin and eosin.
Furthermore, secreted serine proteases found in the lumen of the colon (either luminal flush or in fecal pellets) were also tested with PK105b (FIG. 6B-C). […] Nonetheless, NE activity could be clearly delineated by PK105b in lysates from colon tissues.

This is an account of results in patent US20230140838A9, “NOVEL ACTIVITY-BASED PROBES FOR NEUTROPHIL ELASTASE AND THEIR USE” (Takeda Pharmaceutical Company Limited, priority 2018, published 2023).

Each structure is given as a SMILES string.

In the case of `CCC(NC(=O)[C@@H]1CC2CCCCC2N1C(=O)[C@H](CCS(C)(=O)=O)NC(=O)[C@H](CCCCOCc1ccccc1)NC(=O)CCCCCN1/C(=C/C=C/C=C/C2=[N+](CC)c3ccc(S(=O)(=O)[O-])cc3C2(C)C)C(C)(C)c2cc(S(=O)(=O)O)ccc21)P(=O)(Oc1ccccc1)Oc1ccccc1` (some centres unmarked) [PK105b], the “labeling of NE detected by in-gel fluorescence” value on neutrophil elastase (NE) is “clearly labeled”. For the same compound, the “labeling of PR-3 detected by in-gel fluorescence” value on human proteinase-3 (500 ng recombinant protease, probe 0, 0.1, 0.5 or 1 μM, 37° C. for 30 minutes) was “clearly labeled”. Also, the “potency of PR-3 labeling compared between probes” value at human proteinase-3 (recombinant PR-3, 0.1-1 μM probe) is “more potent than Cy5-V-DPP”. Also, in test [1], the “labeling / binding of trypsin detected by in-gel fluorescence” value is recorded as “labeled trypsin”. The “potency of labeling in bone marrow lysates compared between probes” value in test [2] (0.1, 0.5 and 1 μM) was “greater potency than Cy5-V-DPP”. Further, in test [2] (mouse bone marrow lysate), the “identity of labeled 25-KDa protein by immunoprecipitation with NE-specific antibody” value was “confirmed to be NE”. Moreover, in test [3] (control or TNBS-treated mice, in-gel fluorescence), the “labeled proteins in luminal flush and fecal pellets” value was “two labeled serine proteases at 25 kDa”. The “identity of labeled species by immunoprecipitation” value in test [3] (fecal samples, antibodies to NE, PE, trypsin 3) is “low levels of NE in these samples, with pancreatic elastase and trypsin 3 being the predominant species”.
